The list shows a part of the results. At the low end of the ranking the order means little.

The experiment addresses SIX1-Q177R homeodomain (UniProt Q15475). Kind of experiment: universal protein binding microarray. The note with it: Universal all-10-mer PBM (8x60K, AMADID 030236), 300 nM GST-tagged protein, Alexa Fluor 488 anti-GST; buffer, salt, pH and temperature not stated; high values mean tight binding; most listed sequences are background and not binding sites; double strand, one strand shown.
Consider CCTCGTCA, for which the binding signal was 0.073 E-score.
With AGAAAAAG, the binding signal is -0.161 E-score.
In the case of AACCTTGA, the binding signal was -0.0036 E-score.
For the sequence AAATAACC, the binding signal is -0.181 E-score.
CCCATATA: the binding signal was 0.0842 E-score.
The same measure for ACCTGTGC: 0.0984 E-score; for CGCTATCA: -0.0754 E-score.
With GACTCGGC, the binding signal stood at 0.109 E-score.
AGTGTTGG: the binding signal stood at 0.356 E-score.
CACGGCAC: the binding signal worked out at 0.141 E-score.
For ATAAGTTC, the binding signal was -0.198 E-score.
As for ACATTGAC, the binding signal is -0.149 E-score.
Consider AGTGGCAT, for which the binding signal was -0.106 E-score.
As for CCGGAAGG, the binding signal is -0.131 E-score.
As for AAGTACTG, the binding signal is -0.105 E-score.
Consider CAGATGAC, for which the binding signal is -0.00044 E-score.
As to TAGTGGCA, the binding signal was -0.062 E-score.
With CCAGCATC, the binding signal is 0.0144 E-score.
The same measure for ACCCTCTA: 0.136 E-score; for ATACTCAG: 0.0801 E-score.
In the case of AAATCCAA, the binding signal was -0.0505 E-score.
The same measure for CCAGCCGA: -0.0228 E-score; for CGACTAAG: -0.00719 E-score; for GATTCCGA: 0.00709 E-score.
For GTGCTAAC, the binding signal is 0.0583 E-score.
As to GATTGGTA, the binding signal was -0.0717 E-score.
For CAGCTAAC, the binding signal is 0.128 E-score.
On to AATCTAAA, for which the binding signal is -0.0359 E-score.
Take GAATAGGC: the binding signal is -0.154 E-score.
With CTCAGCCC the figure was -0.217 E-score; with CCGGGACG, 0.0468 E-score.
CCACTGAA: the binding signal is -0.127 E-score.
AGCGGTCC: the binding signal is -0.0987 E-score.
As for AGCGCTTC, the binding signal was -0.0325 E-score.
ATAAACTG: the binding signal is -0.0483 E-score.
For GCAAGGTA, the binding signal is -0.0731 E-score.
On to ACGCCATA, for which the binding signal was determined as 0.071 E-score.
CATTATAA: the binding signal is -0.167 E-score.
With AACAGGAC the figure was -0.0522 E-score; with ATGTAAAT, 0.0112 E-score; with CGAAAGAC, -0.202 E-score.
On to CCCGGTCG, for which the binding signal came to 0.212 E-score.
For TATAGATA, the binding signal was 0.00683 E-score.
With CGTTTGAA, the binding signal is -0.204 E-score.
CGATGAAA: the binding signal is -0.125 E-score.
The same measure for GCCTGAGA: -0.0776 E-score; for CAACGAAA: -0.00838 E-score.
Regarding AATGGGAG, the binding signal is -0.135 E-score.
Consider AATATCAC, for which the binding signal came to 0.0154 E-score.
As for GAGCATCC, the binding signal is -0.179 E-score.
In the case of AGAAACCT, the binding signal was -0.03 E-score.
ATTACAAT: the binding signal is -0.0936 E-score.
Take CTTTACCC: the binding signal was 0.171 E-score.
Take ACAGTGAC: the binding signal was determined as 0.0585 E-score.
As for CGGCTCAC, the binding signal is -0.109 E-score.
The same measure for CTAGCGGA: -0.2 E-score; for AAGCGTGT: 0.378 E-score.
Take ATAATCCC: the binding signal amounted to 0.162 E-score.
GCGCTAGC: the binding signal was -0.186 E-score.
On to ACGCCGTC, for which the binding signal was -0.0777 E-score.
For ATTGCATC, the binding signal was -0.0449 E-score.
As for CAAACCTC, the binding signal was -0.064 E-score.
For the sequence CTCCGAAG, the binding signal was determined as 0.0347 E-score.
Turning to GGCTCGAC, the binding signal was found to be 0.111 E-score.
As to TGAGTGAA, the binding signal is -0.174 E-score.
The same measure for CTTTCCGA: -0.122 E-score.
Consider ACAGTAGC, for which the binding signal was -0.21 E-score.
For GGCGTGAA, the binding signal was -0.0323 E-score.
Consider GACATAGA, for which the binding signal is -0.257 E-score.
As to TCGTCGAA, the binding signal was -0.198 E-score.
Regarding ACTTCACT, the binding signal was -0.137 E-score.
Regarding GAGGTTTA, the binding signal was -0.00176 E-score.
As to ACTCCATG, the binding signal was 0.212 E-score.
Consider GCTCAACC, for which the binding signal was -0.159 E-score.
With ATCCACAA, the binding signal was determined as 0.0164 E-score.
Consider ACATCTTA, for which the binding signal is -0.193 E-score.
Take CCGTGACA: the binding signal stood at 0.307 E-score.
With CCGTGGAA the figure was -0.0689 E-score.
With AGAACGAA, the binding signal is -0.0925 E-score.
Turning to ATGAACTG, the binding signal is -0.183 E-score.
For the sequence AGACCAGA, the binding signal is -0.143 E-score.
The same measure for CCGGTTAA: 0.00562 E-score.
As to ATCGACAA, the binding signal was -0.00117 E-score.
With GCATTCCA the figure was -0.252 E-score.
For CCCGTACG, the binding signal worked out at 0.0642 E-score.
As for GCCGCCAA, the binding signal is -0.207 E-score.
As to GATTCACC, the binding signal was -0.0714 E-score.
As for GCTAATTA, the binding signal was -0.167 E-score.
For AGTCTGAC, the binding signal was -0.0699 E-score.
On to GATGAAAA, for which the binding signal is -0.0321 E-score.
Consider ATTATGGC, for which the binding signal is -0.104 E-score.
Regarding ATTTGGTC, the binding signal is -0.277 E-score.
As to CGTTGTCC, the binding signal was -0.0142 E-score.
Consider GAGCCAGA, for which the binding signal was -0.0981 E-score.
Turning to CAACTCTA, the binding signal was -0.0282 E-score.
The same measure for TACCCACA: 0.174 E-score; for CCGACGAC: 0.0876 E-score; for AACTTGGC: -0.168 E-score.
Turning to CGGTTATC, the binding signal turned out to be 0.109 E-score.
In the case of CGGTGCAA, the binding signal turned out to be 0.259 E-score.
For AGTGGGGG, the binding signal was determined as 0.127 E-score.
Turning to TCTGCGCA, the binding signal was -0.185 E-score.
The same measure for TACATCGA: 0.0772 E-score; for ACTGCGAG: -0.00221 E-score.
With AGGTGTAG the figure was 0.473 E-score; with ATACATTA, -0.032 E-score.
With ATTACGTG, the binding signal came out at 0.198 E-score.
Take ACTTCAGC: the binding signal is -0.207 E-score.
The same measure for CAGCCCCG: -0.104 E-score; for ACCAACAC: 0.41 E-score; for TCATTGCA: -0.0589 E-score.
With CAATTGGC, the binding signal was -0.247 E-score.
As to ATGTTTCG, the binding signal is -0.0972 E-score.
As for ATTCGTGG, the binding signal was -0.126 E-score.
With CACAACTA, the binding signal was 0.0334 E-score.
Regarding GATGAATC, the binding signal is -0.205 E-score.
For the sequence AGAATCTC, the binding signal was -0.0592 E-score.
With ACGAAAGA, the binding signal is -0.25 E-score.
Take CTAGGATA: the binding signal worked out at 0.123 E-score.
Turning to AATTGTGC, the binding signal stood at 0.0205 E-score.
For the sequence ATTAATAG, the binding signal was -0.0707 E-score.
With GATGCGCA the figure was -0.0997 E-score; with AACCAGAT, -0.00298 E-score; with GAACGCTC, -0.283 E-score.
For the sequence AGCCCAAC, the binding signal was -0.0323 E-score.
The same measure for AAGATCCT: -0.0376 E-score; for AAGCCAAG: -0.135 E-score; for CATGCGGG: -0.0566 E-score.
In the case of CCTGACCA, the binding signal is -0.0116 E-score.
In the case of ATGCGACA, the binding signal amounted to 0.198 E-score.
With AGTATCAG, the binding signal turned out to be 0.266 E-score.
Take GGGTTACC: the binding signal came to 0.0986 E-score.
As to AGAATACC, the binding signal came out at 0.101 E-score.
With GATTCGGA the figure was -0.133 E-score; with AATACCTA, -0.0986 E-score; with AGCTTTCC, -0.162 E-score.
For the sequence AGTAGCGC, the binding signal was -0.0475 E-score.
For TATCCCAA, the binding signal worked out at 0.0763 E-score.
Take CCGTTCGC: the binding signal is -0.0712 E-score.
For CCCCTACG, the binding signal was determined as 0.181 E-score.
With GTACCTCA, the binding signal is 0.125 E-score.
For the sequence ACGGTGTA, the binding signal was found to be 0.469 E-score.
Take TCTGCAAA: the binding signal was -0.179 E-score.
Take CGCGACCG: the binding signal is -0.0755 E-score.
As to ACCAGCGA, the binding signal amounted to 0.051 E-score.
With ACATCGAC the figure was -0.0512 E-score; with CTAGATAA, -0.0825 E-score; with GTAGTCGA, -0.122 E-score.
Regarding CAACTCCG, the binding signal worked out at 0.125 E-score.
For CATAAAGG, the binding signal is -0.00347 E-score.
Consider GAAGATTC, for which the binding signal was -0.287 E-score.
The same measure for GAATGGAC: -0.1 E-score; for TTACCCAA: 0.0536 E-score.
The same measure for AGACCGAC: -0.0247 E-score; for CAGTACGA: -0.249 E-score.
On to ACCTTTAG, for which the binding signal worked out at 0.0227 E-score.
Turning to GAAAAAAA, the binding signal is -0.11 E-score.
For the sequence GCTTGCAA, the binding signal is -0.264 E-score.
Turning to AGTCGCGC, the binding signal is -0.213 E-score.
For the sequence CTCCAGAG, the binding signal is -0.0703 E-score.
Take AGACATCT: the binding signal was -0.211 E-score.
As for AACCGATG, the binding signal is -0.257 E-score.
On to GATATAAA, for which the binding signal is -0.124 E-score.
With CACCAAGC, the binding signal was determined as 0.26 E-score.
With ATAGCGGA, the binding signal is -0.162 E-score.
On to AGAGAAAC, for which the binding signal came to 0.0252 E-score.
On to ATGTCAGG, for which the binding signal is -0.146 E-score.
In the case of AATGCAAG, the binding signal is -0.0694 E-score.
With ATTGTTCA the figure was -0.12 E-score.
The same measure for ACTCTACT: 0.108 E-score.
With CCACATCG, the binding signal came to 0.016 E-score.
With CTCGTGAA the figure was -0.125 E-score.

The values above are taken from article PMC10668032.
